Measured values from ChEMBL document CHEMBL4888484, “Replenishing the malaria drug discovery pipeline: Screening and hit evaluation of the MMV Hit Generation Library 1 (HGL1) against asexual blood stage Plasmodium falciparum ,using a nano luciferase reporter read-out” (2022).
The campaign covered roughly 150,000 compounds. About 540 (0.36%) showed an effect of 50% or more. This is one part of the list.

System: Plasmodium falciparum
Test: Primary screen in NF54 nanoGlo assay, in single point, at 2uM, 72h; a lower Z score goes with more inhibition
Format: functional, Erythrocyte
Conditions: timepoint 72 hour

SMILES | % Inhibition [%] | Z score
CC(C)(C)C(=O)CC(=O)Nc1cc(N)ccc1Cl | -21 | 2.69
CCOc1ccccc1NC(=O)N1CCCn2nc(C)cc21 | 5 | -0.63
CCOCCN(C)Cc1cnc2ccc(Br)cn12 | -19 | 2.12
CC(C)Cc1nnc(NC(=O)[C@@H]2Cc3ccccc3C(=O)O2)s1 | -4 | 0.6
CC(=O)c1ccc(N2CCN(/C(=N\c3cccc(C(=O)O)c3)NC[C@H]3CCCO3)CC2)cc1 | -24 | 2.24
CCn1cc(CC(=O)NC23CCCC2N(c2nc(C)nc(N(C)C)n2)CC3)nn1 (stereo not drawn) | 13 | -1.62
CCc1ccccc1CC(=O)N(Cc1cccnc1)[C@H]1CCS(=O)(=O)C1 | -1 | 0.19
CC(C)c1nccn1CC(=O)N[C@H]1CCN(c2ncc[nH]c2=O)C1 | 0 | -0.02
O=C(C1CCOCC1)N1CCOc2ccc(N3CCOCC3)cc2C1 | -8 | 1.53
Cc1cccnc1C(F)(F)C(=O)Nc1cc(C)c(O)c(C)c1 | 32 | -1.21
CC(C)c1c(C(=O)N2CCN(c3ccc(F)cc3)CC2)cnn1-c1nccc(-c2cccs2)n1 | 18 | -2.31
COc1nc2c(cc1CN[C@@H](C)CC(F)(F)F)C(=O)N(C1CCCC1)C2 | -10 | 1.38
Cc1ccc(C(=O)N2CCC3(CC2)C[C@@H]3NC(=O)C(C)C)cc1F | -12 | 1.53
COc1ccc(C2=C(C)C(N3CCN(c4ccc(F)cc4)CC3)=NS2(=O)=O)cc1 | -12 | 1.69
Cn1ccc2ccn(CCNC(=O)CNC(=O)OCc3ccccc3)c(=O)c21 | -4 | 0.71
Cc1cc(C(=O)N[C@@H](CO)CC(C)C)ns1 | -6 | 0.92
CCCN(CCC)S(=O)(=O)c1sc2c(c1C(=O)O)CCNC2 | -1 | 0.16
CC[C@H]1COCCN1C(=O)c1ccc2sccc2c1 | 1 | -0.2
CCc1cc(N2CCC[C@H](Nc3ccc4c(c3)OCCO4)C2)nc(C)n1 | -17 | 3.53
COc1ccc(C(C)=O)cc1CN1CCCS1(=O)=O | -4 | 0.69
CC[C@@H](CO)NCc1cccc(OC)c1OCC(=O)NC(C)(C)C | 42 | -5.63

SMILES | % Inhibition [%] | Z score
CC(NC(=O)CN1CCCCC1Cn1cncn1)c1cccs1 (stereo not drawn) | -1 | 0.13
CCc1cc(CNC(=O)N[C@H]2COc3c2ccc(C)c3C)on1 | -5 | 0.69
Cc1c(C(=O)N[C@H]2CC23CC3)c2ccccc2[nH]c1=O | 1 | -0.21
COc1cccc([C@H]2CC(O)=Nc3c2ncn3-c2ccc(F)cc2)c1 | 29 | -3.23
NC(=O)[C@@H](c1ccc(F)cc1)N1CCc2ccccc21 | -17 | 1.43
Cc1cccc(N2CCN(C(=O)C3CCN(c4ncnc5onc(C)c45)CC3)CC2)c1C | -7 | 0.91
COc1ccccc1-c1nnc(CC(=O)N[C@@H]2CCCCC[C@H]2O)o1 | -3 | 0.39
N#Cc1cc2c(cc1-c1cc3c(cc1C(=O)C1CC1)OCCO3)OCCO2 | -3 | 0.37
CCn1cc(CCN2C(=O)N[C@@](C)(COC)C2=O)cn1 | -2 | 0.26
CCC#CCN1CCC(CNC(=O)c2c(Cl)cnn2C)CC1 | 1 | -0.13
C[C@@H](Cc1cccnc1)NC(=O)Nc1cn(C)nc1C(F)(F)F | 7 | -0.73
COc1ccc(CN2CCCN(c3ccc(NC(=O)OCc4ccccc4)cc3)C2=O)cc1 | -15 | 1.44
CCC[C@H]1COCCN1C(=O)c1cccc(-c2cc(C)c(OC)cc2C)c1 | -8 | 1.52
O=C(c1ccco1)N1CCCn2nc(-c3ccncc3)cc2C1 | -21 | 3.95
NC(=NOCc1cnc2ccccc2c1)C1CCCC1 | -5 | 0.56
Cc1nc(Cc2c(C)noc2C)n(-c2ccncc2)n1 | -10 | 1.96
CO[C@@H](CN(C)C1CCN(c2cnccn2)CC1)c1ccccc1 | -7 | 0.84
c1cncc(C2CC(NCc3noc4c3CCCC4)C2)c1 (stereo not drawn) | 2 | -0.3
Cn1c(=O)c2sccc2n(CC(=O)NC2CCCC2)c1=O | 26 | -2.99
O=C(c1cnc(-c2ccccn2)nc1O)N1CCN(c2ccc(F)cc2)CC1 | 1 | -0.08
CC(C)Cc1nc(C2(C)COC2)n(-c2ccc3c(c2)OCO3)n1 | 4 | -0.76

SMILES | % Inhibition [%] | Z score
Cc1ccc2cc(CN(CCCN3CCCC3=O)C(=O)CC3CCCC3)c(N3CCC[C@H](O)C3)nc2c1 | -11 | 1.41
COc1ccc(S(=O)(=O)NC2(c3noc(C4CC4)n3)CCCC2)cc1 | -4 | 0.45
CC1CN(C(=O)NCc2nccc(C(F)(F)F)n2)C(C)CO1 (stereo not drawn) | -2 | 0.15
Cc1c(C(=O)Nc2ccccc2)[n+]([O-])cn1-c1ccc(CC(=O)O)cc1 | 4 | -0.68
COc1ccccc1/N=C(/NC(=O)c1ccc(F)cc1)N1CCN(c2cc(C)ccc2C)CC1 | -9 | 1.71
O=C(NCCn1ccc(-c2cnccn2)n1)c1ccco1 | 20 | -2.5
Cn1cncc1C(=O)N1CCCCCC12CN(C(=O)OC(C)(C)C)C2 | 0 | -0.03
CCOC(=O)N1CCC(NC(=O)C(=O)Nc2ccc(OC)c(Cl)c2)CC1 | 1 | -0.1
CC1C(C)S(=O)(=O)CCN1C(=O)NC1CC(c2ccccc2)C1 (stereo not drawn) | -7 | 1.34
CCNC(=O)C1=CCN(C(=O)NC2CCCCC2)CC1 | 5 | -0.94
C[C@@H](NS(=O)(=O)c1c(F)cccc1F)c1ccc(Cl)cn1 | 1 | -0.17
O=C(Nc1ccc2c(c1)N(C(=O)c1ccccc1)CCC2)c1ccc(F)cc1 | 7 | -0.71
Cc1cc(C)c(S(=O)(=O)N2CCC(C(=O)O[C@@H](C)C(=O)Nc3ccccc3-c3ccccc3)CC2)c(C)c1 | -9 | 1.55
Cn1cncc1C(=O)Nc1ccc(O[C@@H]2CCCC[C@H]2O)cc1 | -11 | 1.1
COc1ccc(S(=O)(=O)N(Cc2cccs2)Cc2cccs2)cc1 | 31 | -3.99
CN(C)C[C@H]1CN(c2ncnc3c2CCC3)CCO1 | -4 | 0.66
COc1ccccc1NC(=O)c1ccc2c(c1)nnn2C1CCCC1 | -7 | 0.93
CCN1CC2(CCN(C(=O)c3ccccc3)CC2)C[C@@H](c2ccccc2)C1=O | -5 | 0.44
Cc1cc(C(F)(F)F)nn1-c1nccn(C)c1=O | -7 | 1.12
O=C(O)[C@@H]1CCCN1C(=O)c1ccccc1N1C(=O)[C@@H]2Cc3c([nH]c4ccccc34)C(c3cccc(Cl)c3)N2C1=O (stereo partly drawn) | -2 | 0.27
COc1ccc(CC(=O)Nc2cc(-c3cccnc3)no2)cc1 | 0 | 0.04

SMILES | % Inhibition [%] | Z score
CC(C)(C)C(=O)NCc1nccnc1-c1ccoc1 | 21 | -2.62
Cc1cn2cc(NC(=O)N[C@H](CCO)c3ccccc3)ccc2n1 | -3 | 0.44
Cc1n[nH]c(C)c1[C@@H](C)CC(=O)N(C)Cc1nccn1CC(F)(F)F | -12 | 1.45
CN(C)C(=O)Cc1ccc(NS(C)(=O)=O)cc1 | 0 | 0.04
CCN(CC1CCOCC1)C(=O)c1ccc(Cl)cn1 | -8 | 1.13
O=C(C(=O)N1CCC2CCCC21)N1CCN(C2CC2)CC1 (stereo not drawn) | 2 | -0.32
O=C(Nc1nnc(-c2ccc3c(c2)OCO3)o1)c1cccs1 | -15 | 2.16
CC(C)CCn1cc(C(=O)N2CCN(c3cccc(F)c3)C[C@@H]2C)nn1 | -1 | 0.16
CS(=O)(=O)c1ccc2nc(NC(=O)c3cc(=O)[nH]c4ccccc34)sc2c1 | -5 | 0.67
Cc1cc(C)c(C(=O)N2CC3CCCCC3C2)c(=O)[nH]1 (stereo not drawn) | 32 | -3.61
O=C([C@@H]1CNCCN1C(=O)CCn1nnc2ccccc21)N1CCOCC1 | -15 | 1.87
CC1CC(c2ccccc2F)N(C(=O)CN2CCNCC2=O)C1 (stereo not drawn) | 3 | -0.35
COc1ccncc1CN[C@H]1CCc2cccnc2CC1 | -6 | 0.84
COCC1(O)CN(C(=O)C(C)(C)C2CCC(O)CC2)C1 (stereo not drawn) | 2 | -0.29
Cc1ccc(NC(=O)N[C@@H](C)C(=O)O)c(C)c1 | 0 | 0.02
O=C(C[C@H]1C(=O)NCCN1Cc1ccoc1)NCCc1cscn1 | -18 | 1.66
CC(=O)Nc1ccc(S(=O)(=O)NCCc2cn(C)c3ncccc23)cc1 | -16 | 1.87
FC(F)(F)c1cc(-c2ccncc2)nc2c1c(-c1ccc(Cl)cc1)nn2-c1ccc(Cl)cc1 | -9 | 0.87
CS(=O)(=O)N1CCCCC1CNC(=O)[C@@]12C[C@@H]1COC21CCC1 (stereo partly drawn) | -18 | 1.88
CCCN(CC(=O)Nc1ccc(F)c(F)c1F)C(=O)c1cc(S(=O)(=O)N(C)C)ccc1N1CCCC1 | -9 | 1.6
Cc1cccc(N(C)Cc2nccs2)n1 | -16 | 1.86
